B1: LINE1-mini (parent)
chain: GGCAGAGCUCAACACAGCGUGGCAAAGUGGCUGUGGCUAGACUGCC

Data on 56 variants can be found in the RNAGym collection of RNA variant scans (doi:10.7554/elife.90254).

Read counts are not given, so values of variants with three or more changes are uncertain.

In the series the parent is B1. The series can be described thus: self-cleavage, relative activity (ratio to wild type); higher = more cleavage; in vitro, sequencing; the parent is a self-cleaving ribozyme.
As for GGCACAGCUCACCACAGCGUGGUAAGGUGGCUGUCGCUAGACUGCC [G5C A12C C23U A26G G35C], the self-cleavage is 0.01.

On to GGCACAGCUCAUCACAGAGGGGCAAAGUGGAUGUGGCUAGACUGCC [G5C A12U C18A U20G C31A], for which the self-cleavage was 0.02.

Consider GGCAAAGCUCAACACAGCGUGGCAAAGGGCCCGUGGCUAGAUUGCC [G5A U28G G30C U32C C42U], for which the self-cleavage is 0.02.

Take GGCACAGCUCAUCACAGCAUGGCAAUGUGGCUGUGGCUAGAUUGCC [G5C A12U G19A A26U C42U]: the self-cleavage amounted to 0.

For the variant GGCACGGCUCAACACAGCGUGGUAAAGUGGCUGUGGCUAGUCUGCC [G5C A6G C23U A41U], the self-cleavage worked out at 0.07.

Regarding GGCACUGCUCAACACAGCGCGGCAAAGUGGGUGUGGCUAGCCUGCC [G5C A6U U20C C31G A41C], the self-cleavage amounted to 0.02.

Turning to GGCACAGCUCAUAACAGCGUGGCAAAGUGGCUGUGGCUGGACUGCU [G5C A12U C13A A39G C46U], the self-cleavage amounted to 0.08.

Take GGCACAGCUCCACACAGCAUGGCAAAGUGACUGUGGCUAGACUGCC [G5C A11C G19A G30A]: the self-cleavage stood at 0.02.

Take GGCACAGCUCAGCACAGCGUGGCAAAGAGGCUGUGGCUAGACUGCC [G5C A12G U28A]: the self-cleavage is 0.01.

As to GGCACAGCUCCACACAGCGUGGCAAAGUGGCUGUGGCUAGAUUGCU [G5C A11C C42U C46U], the self-cleavage worked out at 0.

With GGCACUGCUCAACACAGCGUGGCAAAGUGGCUGUGGCUCGACAGCC [G5C A6U A39C U43A], the self-cleavage came out at 0.04.

On to GGCAAAGCGCAACACAGCGCGGCAAAGUGGCUGUGGCCAGACUGUC [G5A U9G U20C U38C C45U], for which the self-cleavage amounted to 0.02.

For GGCACAGCUCGACACUGCGUGGCAAAGUGGCUGUGGCUAGACUGCC [G5C A11G A16U], the self-cleavage was found to be 0.01.

Regarding GGCACAGCUCUACACAGCUUGGCAAAGCGGCUGUGGCUAGACUGCC [G5C A11U G19U U28C], the self-cleavage was 0.02.

Take GGCAAAGCUCAACACAGCGUGGCAAAGCGGCUGAGUCUAGACUGCG [G5A U28C U34A G36U C46G]: the self-cleavage was 0.08.

As to GGCACGGCUCAUCACAGCGUUGCAAAGUGGCUGUGGCAAGACUGCC [G5C A6G A12U G21U U38A], the self-cleavage came out at 0.

Regarding GGCACAGCUCAGCACAGCGUUGCAAGGUGGCUGUGGCUAGACUGCA [G5C A12G G21U A26G C46A], the self-cleavage amounted to 0.02.

Turning to GGCACUGCUCAACACAGCGUGGCAACGUGGCUGUGGCUAGACAGCC [G5C A6U A26C U43A], the self-cleavage stood at 0.02.

As to GGCACCGCUCAACACAGCGUGGCAAAGUGGCUGAGGCUAGACUGCC [G5C A6C U34A], the self-cleavage was 0.02.

As to GGCACAGCUCCACACAGCGCGGCAAAGUGGCUGUGGCUAGACUGCC [G5C A11C U20C], the self-cleavage is 0.01.

For GGCACAGCUCGACACAGCGUGGCAAAGUGGCUGUGGCUGGACUGCC [G5C A11G A39G], the self-cleavage was found to be 0.02.

Consider GGCACUGCUCAACAAAGCGUGGCAAAGUGGCUGUGGCUAGACUGGC [G5C A6U C15A C45G], for which the self-cleavage came out at 0.05.

Turning to GGCACAGCUCCACACAGCGUGGCAAAGUGGCUGUGGCCAGACUGCC [G5C A11C U38C], the self-cleavage amounted to 0.02.

Consider GGCAAAGCUCAACACAGCGAGGCAAAGUGGCUGUGGCCAGACUUAC [G5A U20A U38C G44U C45A], for which the self-cleavage is 0.

GGCACAGCUCAUCACAGCUUGGCAGAGUGGCUGUAGCCAGACUGCC [G5C A12U G19U A25G G35A U38C]: the self-cleavage was found to be 0.02.

Consider GGCACCGCUCAACACAGAGUGGCAAAGUGCCUGUGGCUGAACUGCC [G5C A6C C18A G30C A39G G40A], for which the self-cleavage turned out to be 0.

On to GGCACAGCUCUCCGCAGCGGGGCAAAGUGGAUGUGGCUAGACUGCC [G5C A11U A12C A14G U20G C31A], for which the self-cleavage was 0.02.

With GGCACAGCUCGACACAGCGUGGCAAAGUGGCAGUGGCUAGACUGCC [G5C A11G U32A], the self-cleavage came out at 0.02.

As for GGCAAAGCUCAACACAGCGCAGAAAAGUGGUUGUGGCUAGACUGCC [G5A U20C G21A C23A C31U], the self-cleavage stood at 0.05.

Take GGCACAGCUCUACACAGCGUGGCAAAGUGGCUGUGCCUAGACUGCC [G5C A11U G36C]: the self-cleavage worked out at 0.04.

Regarding GGCACAGCUCACCACAGCGUGGCAAAGUGGCUGUGGUUAGAUUGCC [G5C A12C C37U C42U], the self-cleavage came out at 0.

As for GGCACGGCUCAACACAUCGUGGCAAAGUGGCUGUGGCUAGACUGCU [G5C A6G G17U C46U], the self-cleavage amounted to 0.06.

As for GGCACAGCUCACCACAGCGUGGCAAAGUGGCUACGGCUAGACUGCC [G5C A12C G33A U34C], the self-cleavage is 0.03.

As for GGCAAAGCUCAACACAGCGUGGCAAAGAGGCGGUGGCUAGACUGCC [G5A U28A U32G], the self-cleavage turned out to be 0.01.

As for GGCAAAGCGCAACACAGCGUGGCAAAUUGGCUGUGGCUAGACUGCC [G5A U9G G27U], the self-cleavage was found to be 0.09.

For GGCACUGCUCAACACAGCGUGGCAAAGUGGCUGUUGCUAGACUGCC [G5C A6U G35U], the self-cleavage turned out to be 0.02.

For the variant GGCACCGCGUAACACAGCGUGGCAAAGUGGCUGUUGCUAGACCGCC [G5C A6C U9G C10U G35U U43C], the self-cleavage worked out at 0.02.

GGCACGGCCCAACACAGCGUGGCAAAGUUGCUGUGGCUAGACUGCC [G5C A6G U9C G29U]: the self-cleavage was determined as 0.05.

On to GGCACAGCUCACCAGAGCGUGGCAAAGUGGCUGUGGCUAGACUGCC [G5C A12C C15G], for which the self-cleavage was 0.

In the case of GGCACAGCUCCACACAUCGUGGCAAAGUGGCUGUGGCUAGACAGGC [G5C A11C G17U U43A C45G], the self-cleavage worked out at 0.

Consider GGCACCGCUCAACACAGCGUGGCAAAGUGGCUGUGGCUAGGCUGCC [G5C A6C A41G], for which the self-cleavage is 0.28.

Regarding GGCACAGCUCUACACAGCGUCGCUAAGUGGCUGUGACUAGACUGCC [G5C A11U G21C A24U G36A], the self-cleavage turned out to be 0.01.

For the variant GGCAAAGCUCAACACAGCGUGGCAAAGUGGCGGUGGCUAGACUGCA [G5A U32G C46A], the self-cleavage was found to be 0.04.

Turning to GGCACAGCUCGACACAGCAUCGCAAAUUGGUUGUGGCGAGACUGCC [G5C A11G G19A G21C G27U C31U U38G], the self-cleavage amounted to 0.

For the variant GGCACCGCUCAACACGGCGAGGCAAAGUGGCUGUGGCUAGACUGCC [G5C A6C A16G U20A], the self-cleavage is 0.05.

In the case of GGCAAAGCGCAACACAGCGAGGCAAAGUGGCUGUGGCUAGACUGCC [G5A U9G U20A], the self-cleavage is 0.29.

In the case of GGCACAGCUCAGCACAGCGUGCGAAAGUGGCUGUGGCUAGACUGCC [G5C A12G G22C C23G], the self-cleavage was 0.

In the case of GGCACAGCUCAGCACAGCGUGGCAAAGUGGCUGUCGCUAGACUGAC [G5C A12G G35C C45A], the self-cleavage was 0.01.

With GGCAAAGCGCAACAUAGCGUGGCAAAGUGGCUGUGGCUAGACUGCC [G5A U9G C15U], the self-cleavage stood at 0.08.

With GGCAAAGCUCAACACAGCGGCGCAAAGUGUCUGUUGCUAGACUGCC [G5A U20G G21C G30U G35U], the self-cleavage was 0.02.

On to GGCACAGCUCGACACAGCGUGGCAAAGUGGCUUUGGCUAGACUACC [G5C A11G G33U G44A], for which the self-cleavage worked out at 0.03.

As for GGCAAAGCUCAACACAGCGGGGCAAAUUGGCUGUGGCUACACUGCC [G5A U20G G27U G40C], the self-cleavage came to 0.36.

For GGCAAAGCUCAACACAGCGAGGCAAAGUGGCUGUCGCUAGACUGCC [G5A U20A G35C], the self-cleavage was determined as 0.02.

Regarding GGCAAAGCUCAACACAGCGUGGCAAAGUGGCUGUGGCAAGACCGCC [G5A U38A U43C], the self-cleavage came out at 0.05.

For the variant GGCACUGCUCAACACUGGGUGGGACCGUGGCUGUGGCUAGACUGCC [G5C A6U A16U C18G C23G A25C A26C], the self-cleavage came out at 0.03.

With GGCAAAGCUCAACACAGCGCGGCAAAGUGUCUGUGGCUAGACUACC [G5A U20C G30U G44A], the self-cleavage was 0.05.
